This is an account of results in publication PMC4336329 (PLoS ONE, 2015).

In all, about 310,000 compounds went through this assay and about 2,200 (0.71%) showed an effect of 50% or more. Effects have a minus sign here. The list shows a part of the results.

Chain of human ether-à-go-go-related gene (hERG) potassium channel (Q12809 whole entry, looked up): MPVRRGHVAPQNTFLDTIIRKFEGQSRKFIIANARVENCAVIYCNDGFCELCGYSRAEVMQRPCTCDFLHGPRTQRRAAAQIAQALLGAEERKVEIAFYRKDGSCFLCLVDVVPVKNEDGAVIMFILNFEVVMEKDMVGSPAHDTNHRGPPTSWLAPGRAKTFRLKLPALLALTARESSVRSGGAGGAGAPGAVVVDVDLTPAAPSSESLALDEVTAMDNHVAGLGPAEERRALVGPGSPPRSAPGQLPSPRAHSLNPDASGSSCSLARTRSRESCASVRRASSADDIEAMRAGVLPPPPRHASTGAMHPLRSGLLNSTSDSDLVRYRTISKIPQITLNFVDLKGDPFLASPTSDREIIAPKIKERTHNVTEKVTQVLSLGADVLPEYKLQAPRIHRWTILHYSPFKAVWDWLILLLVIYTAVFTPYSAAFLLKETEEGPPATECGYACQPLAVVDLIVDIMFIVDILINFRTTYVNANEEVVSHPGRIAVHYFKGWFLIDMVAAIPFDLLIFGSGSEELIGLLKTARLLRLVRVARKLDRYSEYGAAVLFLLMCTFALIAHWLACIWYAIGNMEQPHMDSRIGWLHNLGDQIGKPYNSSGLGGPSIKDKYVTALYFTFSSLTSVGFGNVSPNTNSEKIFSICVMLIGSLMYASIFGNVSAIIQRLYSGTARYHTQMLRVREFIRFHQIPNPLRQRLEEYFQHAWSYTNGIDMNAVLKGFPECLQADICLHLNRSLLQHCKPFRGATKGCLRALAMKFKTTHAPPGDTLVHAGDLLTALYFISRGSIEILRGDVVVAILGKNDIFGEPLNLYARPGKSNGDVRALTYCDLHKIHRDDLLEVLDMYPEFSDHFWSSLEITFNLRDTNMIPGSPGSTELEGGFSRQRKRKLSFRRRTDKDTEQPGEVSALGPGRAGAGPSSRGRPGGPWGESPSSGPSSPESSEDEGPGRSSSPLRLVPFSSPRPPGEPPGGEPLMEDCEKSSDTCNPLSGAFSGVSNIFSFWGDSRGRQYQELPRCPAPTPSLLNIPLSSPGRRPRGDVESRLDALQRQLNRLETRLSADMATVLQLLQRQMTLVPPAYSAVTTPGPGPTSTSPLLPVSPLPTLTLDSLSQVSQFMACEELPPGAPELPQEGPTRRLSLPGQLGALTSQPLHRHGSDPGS

This assay addresses human ether-à-go-go-related gene (hERG) potassium channel (human, UniProt Q12809). Description: primary screen, population patch clamp on CHO cells stably expressing hERG.
Consider `O=C(COC(=O)Cn1cnc2ccccc21)NCCc1ccc(Cl)cc1`, for which the “hERG current change (%, negative = inhibition) at 1uM” value was -2.42%.

In the case of `CN1CCN(C(=O)c2cnn(-c3ccccc3)c2NC(=O)c2ccccc2)CC1`, the “hERG current change (%, negative = inhibition) at 1uM” value came to 10.4%.

As to `Cc1nn(CC(=O)OCC(=O)c2ccc(OC(F)F)cc2)c(C)c1[N+](=O)[O-]`, the “hERG current change (%, negative = inhibition) at 1uM” value is -0.897%.

Take `Cc1ccc(C(C)C)c(OCC(=O)NN=C2CCCC2)c1`: the “hERG current change (%, negative = inhibition) at 1uM” value stood at 18.2%.

`NNc1nc(-c2ccccc2)nc2sc3c(c12)CCCC3`: the “hERG current change (%, negative = inhibition) at 1uM” value was 14.5%.

With `Cc1ccc2nc(CNC(=O)C3CCC(=O)N(Cc4ccccc4F)C3)cn2c1` (centres unmarked), the “hERG current change (%, negative = inhibition) at 1uM” value was found to be 5.18%.

Turning to `CCn1cc(C(=O)N2CCCCC2)c2ccccc21`, the “hERG current change (%, negative = inhibition) at 1uM” value came out at 12.9%.

In the case of `COc1ccc(CCNC(=O)COC(=O)c2ccc(N3CCCC3=O)cc2)cc1OC`, the “hERG current change (%, negative = inhibition) at 1uM” value was 13.2%.

In the case of `O=S(=O)(c1cccc(C(F)(F)F)c1)N1CCC(c2nc3ccccc3[nH]2)CC1`, the “hERG current change (%, negative = inhibition) at 1uM” value is 7.11%.

Take `NC(=O)c1ccc(NC(=O)COC(=O)CCN=C2NS(=O)(=O)c3ccccc32)cc1`: the “hERG current change (%, negative = inhibition) at 1uM” value was found to be 11.1%.

Take `Cc1ccc(N(C)C(=O)CCNC(=O)Cn2cnc3ccccc3c2=O)cc1C`: the “hERG current change (%, negative = inhibition) at 1uM” value was 10.1%.

For the compound `CN(C)c1nc(N)c([N+](=O)[O-])c(NCC2CCCO2)n1` (centres unmarked), the “hERG current change (%, negative = inhibition) at 1uM” value amounted to 14.3%.

On to `CCOc1ccc(C(=O)NC2CCN(S(C)(=O)=O)CC2)cc1`, for which the “hERG current change (%, negative = inhibition) at 1uM” value came to 4.53%.

Take `CCOC(=O)c1sc(SCc2ccccc2)c2c1CC(C)(C)CC2=O`: the “hERG current change (%, negative = inhibition) at 1uM” value is listed as 8.46%.

Turning to `Cc1cc(C)n2ncc(C(=O)O)c2n1`, the “hERG current change (%, negative = inhibition) at 1uM” value is on record as 6.38%.

With `COc1ccc(CCNC(=O)CSc2nc(C)nc3c2c(=O)n(C)c(=O)n3C)cc1OC`, the “hERG current change (%, negative = inhibition) at 1uM” value was 11%.

Consider `CC1CN(C(=S)Nc2ccc(S(N)(=O)=O)cc2)CC(C)O1` (centres unmarked), for which the “hERG current change (%, negative = inhibition) at 1uM” value stood at 5.9%.

In the case of `O=C(Cc1ccc(-n2c(=O)c3sccc3n(CC(=O)Nc3ccccc3F)c2=O)cc1)NCc1ccco1`, the “hERG current change (%, negative = inhibition) at 1uM” value is on record as 13%.

`COc1ccc2c(c1)c(C(=O)C(C)N1CCCCC1)c(C)n2C` (centres unmarked): the “hERG current change (%, negative = inhibition) at 1uM” value is 16.9%.

Turning to `COc1cc(NCCC(=O)c2cccs2)c(OC)cc1Cl`, the “hERG current change (%, negative = inhibition) at 1uM” value came out at 1.26%.

With `O=S(=O)(/C=C/c1ccccc1)N1CCN(c2ccc(F)cc2)CC1`, the “hERG current change (%, negative = inhibition) at 1uM” value was -4.09%.

With `Cc1cccc(N(CC(=O)NC2CC3CCC2C3)S(=O)(=O)c2ccccc2)c1` (centres unmarked), the “hERG current change (%, negative = inhibition) at 1uM” value is given as 6.83%.

`CC1CN(S(=O)(=O)c2cccc(C(=O)Nc3ccc4c(c3)CCC4)c2)CC(C)O1` (centres unmarked): the “hERG current change (%, negative = inhibition) at 1uM” value is given as 1.39%.

Turning to `CC(=O)CC1(C)OC(N)=C(C#N)C1(C#N)C#N` (centres unmarked), the “hERG current change (%, negative = inhibition) at 1uM” value is 6.55%.

As to `Cn1c2ccccc2c2cnn(CC(=O)N3CCCCC3)c(=O)c21`, the “hERG current change (%, negative = inhibition) at 1uM” value was 1.33%.

For `N#CCCn1cc(C(=O)CN2C(=O)NC3(CCCCCC3)C2=O)c2ccccc21`, the “hERG current change (%, negative = inhibition) at 1uM” value is given as 8.94%.

In the case of `C/C(=N\NC(N)=O)C1CC(CC(C)C)C(=O)O1` (centres unmarked), the “hERG current change (%, negative = inhibition) at 1uM” value is on record as 11.8%.

On to `CC(=O)Nc1ccc(S(=O)(=O)Nc2cc(-c3ccccc3)nn2C)cc1`, for which the “hERG current change (%, negative = inhibition) at 1uM” value came to 16.2%.

Regarding `COc1ccc(CNC(=O)Cn2nnc3ccccc3c2=O)cc1`, the “hERG current change (%, negative = inhibition) at 1uM” value is given as 13%.

`CCOC(CCNC(=O)CCC(=O)Nc1ccc2nc(N3CCN(C)CC3)cc(C)c2c1)OCC`: the “hERG current change (%, negative = inhibition) at 1uM” value amounted to 18.8%.

`COc1ccccc1-n1cc(-c2ccccc2)c2c(=S)nc[nH]c21`: the “hERG current change (%, negative = inhibition) at 1uM” value is listed as 11.8%.

For the compound `COc1ccc(S(=O)(=O)N2CCC(C(=O)N[C@@H](C)C(=O)N3CCCCCC3)CC2)cc1`, the “hERG current change (%, negative = inhibition) at 1uM” value was -5.24%.

On to `CCOC(=O)c1cnc(-c2ccccc2)nc1Oc1ccc(C)cc1`, for which the “hERG current change (%, negative = inhibition) at 1uM” value worked out at 17.1%.

On to `O=c1cc(C(F)(F)F)[nH]c(=O)n1C1CCCCC1`, for which the “hERG current change (%, negative = inhibition) at 1uM” value is reported as -2.27%.

Regarding `COCc1[nH][nH]c(=O)c1C=Nc1ccc(F)cc1F`, the “hERG current change (%, negative = inhibition) at 1uM” value is on record as 1.77%.

Turning to `Cc1occc1C(=O)NCCCCc1ccccc1`, the “hERG current change (%, negative = inhibition) at 1uM” value is given as 13.3%.

Take `COC(=O)c1c(C)[nH]c(C(=O)C(C)OC(=O)c2cnc(C)cn2)c1C` (centres unmarked): the “hERG current change (%, negative = inhibition) at 1uM” value came to 12.2%.

Regarding `COCCN(Cc1ccccc1)C(=O)c1cccc(S(=O)(=O)N2CCCc3ccccc32)c1`, the “hERG current change (%, negative = inhibition) at 1uM” value was 2.23%.

In the case of `CN(CC(=O)Nc1cccc(F)c1)C(=O)c1ccc2c(c1)NC(=O)CS2`, the “hERG current change (%, negative = inhibition) at 1uM” value is 7.98%.

Take `COc1ccc(C(=O)Nc2oc(-c3ccccc3)c(-c3ccccc3)c2C#N)cc1OC`: the “hERG current change (%, negative = inhibition) at 1uM” value was determined as 11.5%.

Regarding `Cc1ccc(CN(CC(=O)NCc2ccccn2)S(=O)(=O)c2ccccc2)cc1`, the “hERG current change (%, negative = inhibition) at 1uM” value is recorded as 0.106%.

Take `C=CC[N+](C)(C)CCCNC(=O)/C=N/O.[I-]`: the “hERG current change (%, negative = inhibition) at 1uM” value was 14%.

For `CCOC(=O)CSc1ccc(C(=O)NCCN2CCOCC2)cc1[N+](=O)[O-]`, the “hERG current change (%, negative = inhibition) at 1uM” value was 13.8%.

Turning to `Cc1onc(-c2ccccc2)c1C(=O)N1CCCN2C(=O)c3ccccc3C21` (centres unmarked), the “hERG current change (%, negative = inhibition) at 1uM” value is on record as 6.77%.

Regarding `O=C(CN1C(=O)C2C3C=CC(C3)C2C1=O)Nc1ccc(S(=O)(=O)N2CCCCC2)cc1` (centres unmarked), the “hERG current change (%, negative = inhibition) at 1uM” value is reported as 9.49%.

On to `Cc1ccsc1/C=N/NC(=O)c1nnn(-c2nonc2N)c1C`, for which the “hERG current change (%, negative = inhibition) at 1uM” value is -13.3%.

As for `CCC/C=C1/CCCOC(C(=O)NCCNCCO)(C(F)(F)F)C1` (centres unmarked), the “hERG current change (%, negative = inhibition) at 1uM” value was 17.6%.

On to `O=C(Nc1ccc(OCC(F)(F)C(F)F)c(C(F)(F)F)c1)c1ccc(Cl)cc1`, for which the “hERG current change (%, negative = inhibition) at 1uM” value is 6.93%.

On to `c1ccc2[nH]c(SCc3cn4ccccc4n3)nc2c1`, for which the “hERG current change (%, negative = inhibition) at 1uM” value was determined as 3.92%.

Turning to `CCOC(=O)C1CCN(c2ncnc3c2cnn3-c2ccc(Cl)cc2)CC1`, the “hERG current change (%, negative = inhibition) at 1uM” value is given as 8.01%.

`CCOC(=O)c1sc(/N=C/C2=C(O)CC(C)(C)CC2=O)c(C(=O)OCC)c1C`: the “hERG current change (%, negative = inhibition) at 1uM” value turned out to be 4.33%.

As to `COc1ccccc1OCC(=O)Nc1ccc(N2CCOCC2)cc1N1CCOCC1`, the “hERG current change (%, negative = inhibition) at 1uM” value was found to be 2.2%.

Take `O=C(Nc1nc(-c2nc3ccccc3s2)cs1)C1CC1`: the “hERG current change (%, negative = inhibition) at 1uM” value worked out at 6.85%.

For `CCOc1ccc2nc(NC(=O)CC3Oc4ccccc4NC3=O)sc2c1` (centres unmarked), the “hERG current change (%, negative = inhibition) at 1uM” value came out at 13.5%.

As to `O=C(NCc1ccncc1)C1CCN(S(=O)(=O)c2cc(Cl)ccc2Cl)CC1`, the “hERG current change (%, negative = inhibition) at 1uM” value worked out at 12.6%.

In the case of `O=C(O)c1cccc(N2C(=S)N=C(Nc3ccccc3)C23CCCCC3)c1`, the “hERG current change (%, negative = inhibition) at 1uM” value was 13.2%.
